Variants at the floor of the assay are shown more often than the library holds them.
B1: tRNA (parent)
chain: CUCUCGGUAGCCAAGUUGGUUUAAGGCGCAAGACUUUAAUUUAUCACUACGAAAUCUUGAGAUCGGGCGUUCGACUCGCCCCCGGGAGAUUUUUUCCUCGAGCAA

Variants of: B1
Assay: nonsense suppression (GFP-seq) (ratio to wild type); higher = more function; SUP4oc tRNA, yeast GFP reporter sort-seq
Summary of the method: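 Each variant's nonsense suppression (GFPSEQ) is a cell-share-weighted bin median GFP/RFP relative to the unmutated parent tRNA. Yeast with genome-integrated tRNA variants from a ~3% random-mutation library, a galactose-driven GFP ochre reporter and RFP were grown in raffinose/galactose medium with 80 mg/L adenine, then sorted into GFP/RFP bins for Illumina sequencing. Variants needed ≥100 reads and ≥30 cells.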

Variant | nonsense suppression
G28C U70G | ≤ 0.026
G28C U70G A87C | ≤ 0.026
G28C U76A C81G | ≤ 0.026
G28C U76C | 0.799
G28U A30G C64U G69C | ≤ 0.026
G28U A33C | ≤ 0.026
G28U A33G A54G C80G | ≤ 0.026
G28U A54C | ≤ 0.026
G28U A60G A62C C77U | ≤ 0.026
G28U A60U U71G | ≤ 0.026
G28U A62C G69C | ≤ 0.026
G28U C29A C34U C77G | ≤ 0.026
G28U C34A C77G | ≤ 0.026
G28U C77A | ≤ 0.026
G28U C79A A87C | ≤ 0.026
G28U C79U | ≤ 0.026
G28U C82A | ≤ 0.026
G28U C82G | ≤ 0.026
G28U C82U | ≤ 0.026
G28U G59A | ≤ 0.026
G28U G61C | 0.321
G28U G61C C82G | ≤ 0.026
G28U G66U | ≤ 0.026
G28U G69U U70A | ≤ 0.026

Variant | nonsense suppression
G28U G73C C75G | ≤ 0.026
G28U G78U | 0.0435
G28U G86C A89C | ≤ 0.026
G28U U57A | ≤ 0.026
G28U U57G G78A | ≤ 0.026
G28U U58G C81G | ≤ 0.026
G28U U63C G78C C83G | ≤ 0.026
G28U U71G C80A G88C | ≤ 0.026
C29A | 0.113
C29A A30C | ≤ 0.026
C29A A31C | ≤ 0.026
C29A A31C A33C G86U | ≤ 0.026
C29A A31C A62G G69U A87C | ≤ 0.026
C29A A31U | ≤ 0.026
C29A A31U C34A G61A U76G | ≤ 0.026
C29A A33C C83U | ≤ 0.026
C29A A33G A87C | ≤ 0.026
C29A A33G G61C G88U | ≤ 0.026
C29A A33G U55C | ≤ 0.026
C29A A33U U63C | ≤ 0.026
C29A A54U | ≤ 0.026
C29A A54U G61C | ≤ 0.026
C29A A62G | ≤ 0.026
C29A A62U C83G | ≤ 0.026

Variant | nonsense suppression
C29A C34A A62C | ≤ 0.026
C29A C34G C82U A87G | ≤ 0.026
C29A C34G G59U U71C | ≤ 0.026
C29A C56U U63A | ≤ 0.026
C29A C64U | ≤ 0.026
C29A C64U G84A | ≤ 0.026
C29A C64U G84U | ≤ 0.026
C29A C72A | ≤ 0.026
C29A C72A U76A | ≤ 0.026
C29A C75U | 0.0265
C29A C81G | ≤ 0.026
C29A C82A | ≤ 0.026
C29A C83U | ≤ 0.026
C29A G32U G66A C72A | ≤ 0.026
C29A G66A C79A G85A | ≤ 0.026
C29A G66U | ≤ 0.026
C29A G67U | ≤ 0.026
C29A G67U A87C | ≤ 0.026
C29A G69A A87C | ≤ 0.026
C29A G73C G84U | ≤ 0.026
C29A G73U C81A | ≤ 0.026
C29A G78C | ≤ 0.026
C29A G78C C81G G85A | ≤ 0.026
C29A G84A | ≤ 0.026

Variant | nonsense suppression
C29A G84A G88C | ≤ 0.026
C29A G85A | 0.115
C29A U35C U70C U76C | ≤ 0.026
C29A U55A G66U G69A G88C | ≤ 0.026
C29A U55G C75G | ≤ 0.026
C29A U55G C79U | ≤ 0.026
C29A U57A G73A | ≤ 0.026
C29A U63C | ≤ 0.026
C29A U71C G84C | ≤ 0.026
C29A U76C | ≤ 0.026
C29G | ≤ 0.026
C29G A30C A62C G67U | ≤ 0.026
C29G A30C C34A | ≤ 0.026
C29G A30G | ≤ 0.026
C29G A31G U70C G84U | ≤ 0.026
C29G A33G A54C G69C U71A U76C | ≤ 0.026
C29G A33G G88C | ≤ 0.026
C29G A54G G67A | ≤ 0.026
C29G A60G | ≤ 0.026
C29G A60G C72U U76C | ≤ 0.026
C29G A62G C79U | ≤ 0.026
C29G A62U | ≤ 0.026
C29G A74C | ≤ 0.026
C29G A89U | ≤ 0.026

Variant | nonsense suppression
C29G C34G | ≤ 0.026
C29G C34U U57A U63A C83A A87C | ≤ 0.026
C29G C64A C72U G88C | ≤ 0.026
C29G C64G | ≤ 0.026
C29G C68G U70C C77A | ≤ 0.026
C29G C72A | ≤ 0.026
C29G C75G | ≤ 0.026
C29G C81A | ≤ 0.026
C29G C81U | ≤ 0.026
C29G G32U G84A | ≤ 0.026
C29G G61A G88A | ≤ 0.026
C29G G65C | ≤ 0.026
C29G G65C G88A | ≤ 0.026
C29G G69C G86C | ≤ 0.026
C29G G69C G88U | ≤ 0.026
C29G G69U | ≤ 0.026
C29G G73C G78A | ≤ 0.026
C29G G73C G88U | ≤ 0.026
C29G G73U | ≤ 0.026
C29G G78C | ≤ 0.026
C29G G85C | ≤ 0.026
C29G G86A | ≤ 0.026
C29G G88A | ≤ 0.026
C29G U35A C72G | ≤ 0.026

Variant | nonsense suppression
C29G U35C | ≤ 0.026
C29G U57G C83G | ≤ 0.026
C29G U58G G84U | ≤ 0.026
C29G U63A | ≤ 0.026
C29G U63A C80U | ≤ 0.026
C29G U63C U71G | ≤ 0.026
C29G U76A | ≤ 0.026
C29U | 1.07
C29U A30G | 1.1
C29U A30G A54C C75A | 0.0386
C29U A31C | ≤ 0.026
C29U A31C G78C C81A | ≤ 0.026
C29U A31G | 0.0421
C29U A31G G32U A33G | ≤ 0.026
C29U A31G G66A G73A | ≤ 0.026
C29U A31U A60G C68U U70G | ≤ 0.026
C29U A33C | ≤ 0.026
C29U A33G C79G | ≤ 0.026
C29U A60G | 0.114
C29U A60U | 1.18
C29U A60U C77A | ≤ 0.026
C29U A62C | ≤ 0.026
C29U A62C A74U G85U | ≤ 0.026
C29U A87G | 0.438

Variant | nonsense suppression
C29U A89G | ≤ 0.026
C29U C34G | ≤ 0.026
C29U C34U G66C | ≤ 0.026
C29U C56A G67A | ≤ 0.026
C29U C68A U71A | ≤ 0.026
C29U C68G | ≤ 0.026
C29U C68G U76C | ≤ 0.026
C29U C68U | 0.272
C29U C72U | 0.101
C29U C82U | 0.224
C29U G32A G85U A89G | ≤ 0.026
C29U G32U U57A A62G U63C G69C | ≤ 0.026
C29U G59C C77U A87U | ≤ 0.026
C29U G59C G66A U70A | ≤ 0.026
C29U G59U G65C G84C | ≤ 0.026
C29U G65A C81U | 1.14
C29U G65C | ≤ 0.026
C29U G65C G84A | ≤ 0.026
C29U G67A | ≤ 0.026
C29U G67C | ≤ 0.026
C29U G67C C68U C80G G86A | ≤ 0.026
C29U G69C | ≤ 0.026
C29U G84A | 0.0288

Reference: the RNAGym collection of RNA variant scans (doi:10.1101/gad.245936.114)
